Values joined by “and” are separate entries in the source; they are usually repeats but may differ in a detail not shown here. Equal entries are not always repeated. The source gives many values for each of these; only a part stands here.
Test: PK of compound of Formula (Ia) after single subcutaneous dose of solution formulations in Wistar Han rats
Assay type: in vivo
Conditions: Wistar Han rats, SC 50 mg/kg
Method: Formulations containing the compound of Formula (Ia), or a pharmaceutically acceptable salt thereof, were prepared as solutions and optionally administered subcutaneously or intramuscularly to rats, rabbits, and/or dogs.
(§1) A solution of about 400 mg/mL of the compound of Formula (Ia) having 19.14 w/w % water, 40.66 w/w % PEG 300, 35.20 w/w % of a sodium salt of a compound of Formula (Ia), and 5.00% ethanol was prepared. The solution was administered subcutaneously to male Wistar Han rats at a dose level of about 50 mg/kg and dose volume of 0.125 mL/kg and the pharmacokinetic (PK) profile was determined.
as §1, with “500” for “400”, “16.64” for “19.14”, “35.36” for “40.66”, “43.00” for “35.20”, “0.1” for “0.125”
(§2) A solution of about 400 mg/mL of the compound of Formula (Ia) having 17.00 w/w % water, 36.40 w/w % PEG 300, 35.20 w/w % of a sodium salt of a compound of Formula (Ia), 5.00 w/w % ethanol, and 6.40 w/w % poloxamer 188 was prepared. The solution was administered subcutaneously to male beagle dogs at a dose level of about 12 mg/kg and male Wistar Han rats at a dose level of about 50 mg/kg. The pharmacokinetic profiles were determined, and the results for dogs are summarized in Table and Table, while the results for rats are summarized in Table and Table below.
as §2, with “500” for “400”, “14.06” for “17.00”, “30.12” for “36.40”
A solution of about 300 mg/mL of the compound of Formula (Ia) having 23.33 w/w % water, 48.99 w/w % PEG 300, 26.47 w/w % of a sodium salt of a compound of Formula (Ia), and 1.21 w/w % poloxamer 188 was prepared. The solution was administered subcutaneously to male beagle dogs at a dose level of about 6 mg/kg and male Wistar Han rats at a dose level of about 50 mg/kg. The pharmacokinetic profiles were determined, and the results for dogs are summarized in Table and Table, while the results for rats are summarized in Table and Table below.
as §2, with “18.80” for “17.00”, “40.25” for “36.40”, “34.38” for “35.20”, “1.57” for “6.40”
as §2, with “500” for “400”, “16.29” for “17.00”, “34.88” for “36.40”, “41.92” for “35.20”, “1.91” for “6.40”
A solution of about 400 mg/mL of the compound of Formula (Ia) having 20.90 w/w % water, 44.72 w/w % PEG 300, and 34.38 w/w % of a sodium salt of a compound of Formula (Ia) was prepared. […]

CC(C)(C#Cc1ccc(-c2ccc(Cl)c3c(NS(C)(=O)=O)nn(CC(F)(F)F)c23)c([C@H](Cc2cc(F)cc(F)c2)NC(=O)Cn2nc(C(F)(F)F)c3c2C(F)(F)[C@@H]2C[C@H]32)n1)S(C)(=O)=O [compound of Formula (Ia)]
Plasma concentration (400 mg/mL solution Y (water, PEG 300), 1.00 h, animals #1-#4): 22.1 nM and 39.4 nM and 24.1 nM
Plasma concentration (400 mg/mL solution Y (water, PEG 300), 3.00 h, animals #1-#4): 39.2 nM and 68.9 nM and 49.5 nM
Plasma concentration (400 mg/mL solution Y (water, PEG 300), 8.00 h, animals #1-#4): 66.8 nM and 80.4 nM and 53.7 nM
Plasma concentration (400 mg/mL solution Y (water, PEG 300), 24.0 h, animals #1-#4): 110 nM and 116 nM and 74.5 nM
Plasma concentration (400 mg/mL solution Y (water, PEG 300), 48.0 h, animals #1-#4): 113 nM and 154 nM and 88.9 nM
Plasma concentration (400 mg/mL solution Y (water, PEG 300), 72.0 h, animals #1-#4): 126 nM and 149 nM and 75.4 nM
Plasma concentration (400 mg/mL solution Z (3.13% poloxamer 188), 168 h, animals #1-#4): 130 nM and 122 nM and 65.0 nM
Plasma concentration (400 mg/mL solution Z (3.13% poloxamer 188), 672 h, animals #1-#4): 155 nM and 136 nM and 235 nM
Plasma concentration (400 mg/mL solution Z (3.13% poloxamer 188), 1008 h, animals #1-#4): 136 nM and 139 nM and 244 nM
Plasma concentration (400 mg/mL solution Z (3.13% poloxamer 188), 1344 h, animals #1-#4): 110 nM and 220 nM
Plasma concentration (400 mg/mL solution Z (3.13% poloxamer 188), 1680 h, animals #1-#4): 115 nM and 116 nM and 169 nM
Plasma concentration (400 mg/mL solution Z (3.13% poloxamer 188), 2016 h, animals #1-#4): 137 nM and 93.8 nM and 165 nM
Plasma concentration (400 mg/mL solution Z (3.13% poloxamer 188), 2352 h, animals #1-#4): 117 nM and 122 nM and 167 nM
Plasma concentration (400 mg/mL solution Z (3.13% poloxamer 188), 2688 h, animals #1-#4): 117 nM and 158 nM and 172 nM
Plasma concentration (400 mg/mL solution Z (3.13% poloxamer 188), 3024 h, animals #1-#4): 115 nM and 151 nM and 154 nM
Plasma concentration (400 mg/mL solution Z (3.13% poloxamer 188), 3360 h, animals #1, #3, #4 (#2 NS)): 158 nM and 133 nM
Plasma concentration (400 mg/mL solution Z (3.13% poloxamer 188), 3696 h, animals #1, #3, #4 (#2 NS)): 163 nM and 150 nM
Plasma concentration (500 mg/mL solution X (5.00% ethanol, 1.91% poloxamer 188), 3.00 h, animals #1-#3): 57.8 nM and 86.0 nM
Plasma concentration (500 mg/mL solution X (5.00% ethanol, 1.91% poloxamer 188), 8.00 h, animals #1-#3): 75.9 nM and 97.7 nM
Plasma concentration (500 mg/mL solution X (5.00% ethanol, 1.91% poloxamer 188), 24.0 h, animals #1-#3): 151 nM and 237 nM
Plasma concentration (500 mg/mL solution X (5.00% ethanol, 1.91% poloxamer 188), 48.0 h, animals #1-#3): 165 nM and 254 nM
Plasma concentration (500 mg/mL solution X (5.00% ethanol, 1.91% poloxamer 188), 72.0 h, animals #1-#3): 153 nM and 237 nM
Plasma concentration (500 mg/mL solution X (5.00% ethanol, 1.91% poloxamer 188), 96.0 h, animals #1-#3): 166 nM and 201 nM
Plasma concentration (500 mg/mL solution X (5.00% ethanol, 1.91% poloxamer 188), 168 h, animals #1-#3): 134 nM and 189 nM
Plasma concentration (500 mg/mL solution X (5.00% ethanol, 1.91% poloxamer 188), 336 h, animals #1-#3): 185 nM and 246 nM
Plasma concentration (500 mg/mL solution X (5.00% ethanol, 1.91% poloxamer 188), 504 h, animals #1-#3): 239 nM and 261 nM
Plasma concentration (500 mg/mL solution X (5.00% ethanol, 1.91% poloxamer 188), 672 h, animals #1-#3): 246 nM and 252 nM
Plasma concentration (500 mg/mL solution X (5.00% ethanol, 1.91% poloxamer 188), 840 h, animals #1-#3): 282 nM and 239 nM
Plasma concentration (500 mg/mL solution X (5.00% ethanol, 1.91% poloxamer 188), 1008 h, animals #1-#3): 312 nM and 183 nM
Plasma concentration (500 mg/mL solution X (5.00% ethanol, 1.91% poloxamer 188), 1344 h, animals #1-#3): 321 nM and 182 nM
Plasma concentration (500 mg/mL solution X (5.00% ethanol, 1.91% poloxamer 188), 1680 h, animals #1-#3): 310 nM and 224 nM
Plasma concentration (500 mg/mL solution X (5.00% ethanol, 1.91% poloxamer 188), 2016 h, animals #1-#3): 248 nM and 169 nM
Plasma concentration (500 mg/mL solution X (5.00% ethanol, 1.91% poloxamer 188), 2352 h, animals #1-#3): 222 nM and 141 nM
Plasma concentration (500 mg/mL solution X (5.00% ethanol, 1.91% poloxamer 188), 2688 h, animals #1-#3): 205 nM and 157 nM
Plasma concentration (500 mg/mL solution X (5.00% ethanol, 1.91% poloxamer 188), 3024 h, animals #1-#3): 187 nM and 168 nM
Plasma concentration (500 mg/mL solution X (5.00% ethanol, 1.91% poloxamer 188), 3360 h, animals #1-#3): 171 nM and 178 nM
Plasma concentration (500 mg/mL solution X (5.00% ethanol, 1.91% poloxamer 188), 3696 h, animals #1-#3): 138 nM and 144 nM
Plasma concentration (500 mg/mL solution X (5.00% ethanol, 1.91% poloxamer 188), 4032 h, animals #1-#3): 132 nM and 175 nM
Plasma concentration (500 mg/mL solution X (5.00% ethanol, 1.91% poloxamer 188), 4704 h, animals #1-#3): 68.0 nM and 119 nM

Reference: patent publication US11807625B2, “Capsid inhibitors for the prevention of HIV” (Gilead Sciences, Inc., priority 2019, dated 2023)
